{
  "source": "paper PMC4336329",
  "about": "(PLoS ONE, 2015)",
  "note": "Hit rate of the full screen: of about 310,000 compounds, about 14,000 (4.5%) showed an effect of 50% or more. The effect is printed as a negative number. The list shows a part of the results.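 Note: peak tail current of the secondary pulse compared with the same well before compound.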",
  "data": [
    {"target": "human ether-à-go-go-related gene (hERG) potassium channel (human, UniProt Q12809)", "sequence (Q12809 whole entry, looked up)": "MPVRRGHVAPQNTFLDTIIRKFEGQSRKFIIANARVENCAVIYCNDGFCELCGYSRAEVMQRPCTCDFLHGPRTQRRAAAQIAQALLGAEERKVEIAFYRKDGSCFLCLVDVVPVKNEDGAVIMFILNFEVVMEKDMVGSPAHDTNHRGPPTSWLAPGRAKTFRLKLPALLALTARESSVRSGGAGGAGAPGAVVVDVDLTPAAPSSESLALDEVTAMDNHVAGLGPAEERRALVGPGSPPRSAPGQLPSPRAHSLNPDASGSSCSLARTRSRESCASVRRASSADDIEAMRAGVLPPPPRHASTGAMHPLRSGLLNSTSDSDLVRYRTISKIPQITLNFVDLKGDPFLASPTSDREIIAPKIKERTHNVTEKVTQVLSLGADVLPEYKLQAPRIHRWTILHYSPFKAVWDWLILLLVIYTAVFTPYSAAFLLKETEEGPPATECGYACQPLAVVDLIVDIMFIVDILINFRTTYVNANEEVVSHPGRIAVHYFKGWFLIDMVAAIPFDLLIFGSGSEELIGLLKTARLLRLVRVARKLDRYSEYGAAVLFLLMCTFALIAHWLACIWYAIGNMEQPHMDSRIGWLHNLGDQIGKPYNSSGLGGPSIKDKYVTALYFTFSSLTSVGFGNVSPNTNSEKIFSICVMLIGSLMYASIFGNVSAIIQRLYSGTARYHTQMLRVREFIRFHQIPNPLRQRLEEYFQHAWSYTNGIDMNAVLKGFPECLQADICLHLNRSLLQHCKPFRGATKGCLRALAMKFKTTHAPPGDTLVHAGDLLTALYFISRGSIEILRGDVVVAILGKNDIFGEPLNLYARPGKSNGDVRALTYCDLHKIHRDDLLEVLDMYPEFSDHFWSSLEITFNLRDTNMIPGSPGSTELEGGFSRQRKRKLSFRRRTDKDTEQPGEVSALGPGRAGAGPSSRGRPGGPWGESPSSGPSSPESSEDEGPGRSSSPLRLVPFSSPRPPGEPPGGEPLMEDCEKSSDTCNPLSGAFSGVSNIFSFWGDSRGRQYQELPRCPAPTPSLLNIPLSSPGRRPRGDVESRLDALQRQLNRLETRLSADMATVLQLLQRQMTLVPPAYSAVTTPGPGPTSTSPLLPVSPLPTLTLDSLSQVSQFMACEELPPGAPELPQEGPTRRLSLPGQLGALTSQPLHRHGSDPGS", "assay": "primary screen, population patch clamp on CHO cells stably expressing hERG", "units": {"hERG current change (%, negative = inhibition) at 10uM": "%"}, "values": [
      {"smiles": "Cc1c(CC(=O)N[C@@H](C)C(=O)O)c(=O)oc2cc3occ(-c4ccccc4)c3cc12", "hERG current change (%, negative = inhibition) at 10uM": 18.8},
      {"smiles": "NC(=O)C1CCN(C2OC(=O)c3ccccc32)CC1", "note": "(centres unmarked)", "hERG current change (%, negative = inhibition) at 10uM": -10.7},
      {"smiles": "CC(NC(=O)C(c1ccccc1)c1ccccc1)c1ccc(S(N)(=O)=O)cc1", "note": "(centres unmarked)", "hERG current change (%, negative = inhibition) at 10uM": 6.81},
      {"smiles": "CN(C)S(=O)(=O)c1ccc(Cl)c(NC(=O)COC(=O)/C=C/c2ccc(S(=O)(=O)N3CCOCC3)cc2)c1", "hERG current change (%, negative = inhibition) at 10uM": 0.0827},
      {"smiles": "COCCN(C(=O)COC(=O)c1ccccc1Oc1ccccc1)c1c(N)n(Cc2ccccc2)c(=O)[nH]c1=O", "hERG current change (%, negative = inhibition) at 10uM": -21.6},
      {"smiles": "CC1SC(=Nc2ccccc2)N(S(=O)(=O)c2ccccc2)C1=O", "note": "(centres unmarked)", "hERG current change (%, negative = inhibition) at 10uM": 12.3},
      {"smiles": "COc1ccc(N(CC(=O)N2CCOCC2)S(C)(=O)=O)cc1Cl", "hERG current change (%, negative = inhibition) at 10uM": -5.97},
      {"smiles": "CCN1C(=O)[C@@H]2[C@@H](c3ccc(-c4ccc(C(C)=O)cc4)cc3)N3CCCC[C@@]3(C(=O)OC)[C@@H]2C1=O.O=C(O)C(F)(F)F", "hERG current change (%, negative = inhibition) at 10uM": 11.9},
      {"smiles": "CC(C)/C=N/Nc1nc2c(c(=O)n(C)c(=O)n2C)n1C", "hERG current change (%, negative = inhibition) at 10uM": 9.69},
      {"smiles": "COc1ccc(/C=N/NC(=O)c2ccc(Cl)c(S(N)(=O)=O)c2)cc1OCC(N)=O", "hERG current change (%, negative = inhibition) at 10uM": -0.755},
      {"smiles": "COc1ccc(/C=N/Nc2nc(N3CCCC3)nc(N3CCCC3)n2)cc1O", "hERG current change (%, negative = inhibition) at 10uM": -46.1},
      {"smiles": "CCOc1cc(C(=O)NC2=NCCS2)cc(OCC)c1OCC", "hERG current change (%, negative = inhibition) at 10uM": 10.3},
      {"smiles": "O=C(C1CCN(S(=O)(=O)N2CCOCC2)CC1)N1CCC2(CC1)OCCO2", "hERG current change (%, negative = inhibition) at 10uM": 14.4},
      {"smiles": "CCCCN(C(=O)c1ccc(-c2ccc(Cl)cc2)o1)c1c(N)n(CC(C)C)c(=O)[nH]c1=O", "hERG current change (%, negative = inhibition) at 10uM": 14.4},
      {"smiles": "COC(=O)C1=C(C(=O)c2ccc(C)cc2)C(c2ccc(OC)c(OC)c2)n2nnnc2N1", "note": "(centres unmarked)", "hERG current change (%, negative = inhibition) at 10uM": 3.59},
      {"smiles": "Cn1c(Cc2ccccc2)nnc1SCC(=O)Nc1ccccc1", "hERG current change (%, negative = inhibition) at 10uM": 9.54},
      {"smiles": "O=S(=O)(NCC1CCCO1)c1ccc(S(=O)(=O)N(Cc2ccc(F)cc2)C2CCCCC2)cc1", "note": "(centres unmarked)", "hERG current change (%, negative = inhibition) at 10uM": -2.39},
      {"smiles": "COc1ccc(CCNC(=O)COc2ccc(C)nc2[N+](=O)[O-])cc1", "hERG current change (%, negative = inhibition) at 10uM": -13.3},
      {"smiles": "CC(=O)c1cnc2cc(-c3ccc(Cl)cc3)nn2c1C", "hERG current change (%, negative = inhibition) at 10uM": 0.234},
      {"smiles": "O=C(CCc1ccccc1)Nc1cc2c3c(c1)CC(=O)N3CCC2", "hERG current change (%, negative = inhibition) at 10uM": -7.6},
      {"smiles": "Cn1cc([N+](=O)[O-])c(C(=O)NC2CCCCCC2)n1", "hERG current change (%, negative = inhibition) at 10uM": 14.5},
      {"smiles": "O=C(O)c1cc(-n2[nH]c(=O)c3ccccc3c2=O)ccc1Cl", "hERG current change (%, negative = inhibition) at 10uM": 21.3},
      {"smiles": "Cc1ccc(C)c(C(=O)CSc2nc3ccccc3c(=O)[nH]2)c1", "hERG current change (%, negative = inhibition) at 10uM": 19.7},
      {"smiles": "Cc1cc(C(=O)COC(=O)c2ccccc2Br)c(C)n1CC1CCCO1", "note": "(centres unmarked)", "hERG current change (%, negative = inhibition) at 10uM": -32.6},
      {"smiles": "COc1ccc(N2CCN(S(=O)(=O)c3ccc4c(c3)NC(=O)C(C)S4)CC2)cc1", "note": "(centres unmarked)", "hERG current change (%, negative = inhibition) at 10uM": 6.85},
      {"smiles": "CCN(CC(=O)Nc1cc(Cl)ccc1C)C(=O)C1CC(=O)N(Cc2ccccc2)C1", "note": "(centres unmarked)", "hERG current change (%, negative = inhibition) at 10uM": -16.1},
      {"smiles": "Cc1ccc(C)c(N2CCN(S(=O)(=O)c3c(C)[nH]c(C)c3C(=O)N3CCCC3)CC2)c1", "hERG current change (%, negative = inhibition) at 10uM": -8.25},
      {"smiles": "COC(=O)[C@H](Cc1ccccc1)NC(=O)N1CCCCCC1", "hERG current change (%, negative = inhibition) at 10uM": 13.5},
      {"smiles": "C#Cc1ccc([C@H]2C=C(C(=O)O)O[C@@H](OCCCCO)C2)cc1", "hERG current change (%, negative = inhibition) at 10uM": 13.6},
      {"smiles": "COc1ccc2c(c1)CCC(C)N2C(=O)C(=O)c1c[nH]c2ccccc12", "note": "(centres unmarked)", "hERG current change (%, negative = inhibition) at 10uM": 13.8},
      {"smiles": "O=C(Nc1ccccc1C(=O)OCn1nnc2ccccc2c1=O)c1ccco1", "hERG current change (%, negative = inhibition) at 10uM": 16},
      {"smiles": "CN1C2CCC1CC(NC(=O)CSc1ccc(C(C)(C)C)cc1)C2", "note": "(centres unmarked)", "hERG current change (%, negative = inhibition) at 10uM": -21.6},
      {"smiles": "S=C(Nc1cc(Cl)ccc1Cl)Nn1cnnc1", "hERG current change (%, negative = inhibition) at 10uM": 30.8},
      {"smiles": "Fc1ccc(-c2cc(-c3ccccc3)nc(-n3cccn3)n2)cc1", "hERG current change (%, negative = inhibition) at 10uM": -4.4},
      {"smiles": "CC(C)Oc1cccc(NC(=O)c2cnccc2C(F)(F)F)c1", "hERG current change (%, negative = inhibition) at 10uM": -0.311},
      {"smiles": "COC(=O)c1c(NC(=O)COC(=O)Cn2cnc3ccccc32)sc2c1CCCC2", "hERG current change (%, negative = inhibition) at 10uM": 13.2},
      {"smiles": "Cl.c1ccc(CN2C3=NCCCN3c3ccccc32)cc1", "hERG current change (%, negative = inhibition) at 10uM": -57.5},
      {"smiles": "O=C(O)C(c1ccccc1)N1C(=O)/C(=C/c2cccs2)SC1=S", "note": "(centres unmarked)", "hERG current change (%, negative = inhibition) at 10uM": 23.5},
      {"smiles": "O=C(c1ccc(N2CCN(C(=O)c3ccccc3Br)CC2)cc1)c1cccc(F)c1", "hERG current change (%, negative = inhibition) at 10uM": 8.75},
      {"smiles": "O=C(NCCC1=CCCCC1)c1cc(S(=O)(=O)N2CCOCC2)ccc1Cl", "hERG current change (%, negative = inhibition) at 10uM": -3.55},
      {"smiles": "CC(C)OCCCN1C=C2C(=O)C(C)(OC(=O)CCc3ccccc3)C(=O)C=C2C=C1c1ccc(C#N)cc1", "note": "(centres unmarked)", "hERG current change (%, negative = inhibition) at 10uM": -71.3},
      {"smiles": "O=C(NCc1ccccc1Cl)c1ccc(CSc2nc3ccncc3[nH]2)cc1", "hERG current change (%, negative = inhibition) at 10uM": -15.8},
      {"smiles": "CN(C(=O)COC(=O)CCC(=O)c1ccccc1)c1c(N)n(Cc2ccccc2)c(=O)[nH]c1=O", "hERG current change (%, negative = inhibition) at 10uM": 14.1},
      {"smiles": "c1cc2c(cnc3cscc32)s1", "hERG current change (%, negative = inhibition) at 10uM": 1.45},
      {"smiles": "Cc1cc(=O)oc(C)c1C(=O)NCCN(C)Cc1ccccc1", "hERG current change (%, negative = inhibition) at 10uM": 8.33},
      {"smiles": "CCc1cccc(NC(=O)Cn2c3[n+](c4ccc(C(F)(F)F)cc42)CCCCC3)c1.[Cl-]", "hERG current change (%, negative = inhibition) at 10uM": -14.3},
      {"smiles": "Cc1cc(C)cc(NC(=O)CC2NCCNC2=O)c1", "note": "(centres unmarked)", "hERG current change (%, negative = inhibition) at 10uM": 26.3},
      {"smiles": "CCNC(=O)C1CCN(S(=O)(=O)c2ccc(F)cc2)CC1", "hERG current change (%, negative = inhibition) at 10uM": 6.31},
      {"smiles": "CN1CCc2nc(N)c(C#N)c(-c3ccccc3)c2C1", "hERG current change (%, negative = inhibition) at 10uM": -7.5},
      {"smiles": "CN1C(=O)C(C)(C)c2cc(S(=O)(=O)N3CCC(C(=O)NCc4ccccc4Cl)CC3)ccc21", "hERG current change (%, negative = inhibition) at 10uM": -18.1},
      {"smiles": "Cc1ccc(NC(=O)c2cccs2)cc1NC(=O)c1ccccc1Cl", "hERG current change (%, negative = inhibition) at 10uM": 12.6},
      {"smiles": "Cc1c(C)c2ccc(O[C@@H]3O[C@H](CO)[C@H](O)[C@H](O)[C@H]3O)c(C)c2oc1=O", "hERG current change (%, negative = inhibition) at 10uM": 14.3},
      {"smiles": "O=C(O)Cc1sc(Nc2ccccc2)nc1-c1ccc(Cl)cc1", "hERG current change (%, negative = inhibition) at 10uM": 14.6}
    ]}
  ]
}
